In article PMC10201506 (Signal Transduction and Targeted Therapy, 2023):
Where two headings read alike, the source gives them in different places.

What was measured:
[1] = molecular target: T1, Thrombin (Homo sapiens, UniProt P00734); assay: Thrombin enzymatic assay; assay type: biochemical
T1 construct: the activity of Thrombin was monitored using the substrate Benzoyl-FVR-AMC

[2] = molecular target: T2, caspase-3 (Homo sapiens, UniProt P42574); assay: Caspase-3 activity assay; assay type: biochemical
T2 sequence (P42574 29-277): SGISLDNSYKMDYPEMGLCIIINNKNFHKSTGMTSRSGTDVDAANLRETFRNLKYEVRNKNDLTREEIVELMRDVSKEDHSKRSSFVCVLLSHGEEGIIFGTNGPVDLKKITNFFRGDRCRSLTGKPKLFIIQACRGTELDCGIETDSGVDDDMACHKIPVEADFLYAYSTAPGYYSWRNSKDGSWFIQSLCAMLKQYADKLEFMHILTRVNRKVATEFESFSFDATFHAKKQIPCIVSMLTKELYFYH

[3] = molecular target: Cathepsin D (Homo sapiens, UniProt P07339); assay: Cathepsin D enzymatic assay; assay type: biochemical
[4] = molecular target: human proteasome (Homo sapiens, UniProt P20618+P28074); assay: Proteasome activity assay
[5] = read-out: IC50 Caspase3/ cysteine
[6] = read-out: IC50 Cathepsin D/aspartyl

Measured: IC50

CC(C)C[C@H](NC(=O)OCc1ccccc1)C(=O)N[C@@H](CC1CCNC1=O)C(O)S(=O)(=O)O (stereo partly shown) [GC-376]
> 100 µM: [1]; read-out: IC50 Thrombin/serine | [2]; [5] | [3]; [6]

CC(C)(C)[C@H](NC(=O)C(F)(F)F)C(=O)N1C[C@H]2[C@@H]([C@H]1C(=O)N[C@H](C#N)C[C@@H]1CCNC1=O)C2(C)C [PF-07321332]
> 100 µM: [1]; read-out: IC50 Thrombin/serine | [2]; [5] | [3]; [6]

O=C(c1cc(=O)[nH]c2ccccc12)N1CCN(c2ccc(Cl)c(Cl)c2)CC1CN1CCOCC1 (stereo not shown) [JZD-07, 4-(4-(3,4-Dichlorophenyl)-2-(morpholinomethyl)piperazine-1-carbonyl)quinolin-2(1H)-one]
> 100 µM: [4] | [1] | [2] | [3]
